The values that follow come from PMC4336329 (PLoS ONE, 2015).

The campaign covered roughly 310,000 compounds. About 14,000 (4.5%) showed an effect of 50% or more. The effect is printed as a negative number. This is one part of the list.
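Also: peak tail current of the secondary pulse compared with the same well before compound.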

human ether-à-go-go-related gene (hERG) potassium channel, sequence (Q12809 whole entry, looked up): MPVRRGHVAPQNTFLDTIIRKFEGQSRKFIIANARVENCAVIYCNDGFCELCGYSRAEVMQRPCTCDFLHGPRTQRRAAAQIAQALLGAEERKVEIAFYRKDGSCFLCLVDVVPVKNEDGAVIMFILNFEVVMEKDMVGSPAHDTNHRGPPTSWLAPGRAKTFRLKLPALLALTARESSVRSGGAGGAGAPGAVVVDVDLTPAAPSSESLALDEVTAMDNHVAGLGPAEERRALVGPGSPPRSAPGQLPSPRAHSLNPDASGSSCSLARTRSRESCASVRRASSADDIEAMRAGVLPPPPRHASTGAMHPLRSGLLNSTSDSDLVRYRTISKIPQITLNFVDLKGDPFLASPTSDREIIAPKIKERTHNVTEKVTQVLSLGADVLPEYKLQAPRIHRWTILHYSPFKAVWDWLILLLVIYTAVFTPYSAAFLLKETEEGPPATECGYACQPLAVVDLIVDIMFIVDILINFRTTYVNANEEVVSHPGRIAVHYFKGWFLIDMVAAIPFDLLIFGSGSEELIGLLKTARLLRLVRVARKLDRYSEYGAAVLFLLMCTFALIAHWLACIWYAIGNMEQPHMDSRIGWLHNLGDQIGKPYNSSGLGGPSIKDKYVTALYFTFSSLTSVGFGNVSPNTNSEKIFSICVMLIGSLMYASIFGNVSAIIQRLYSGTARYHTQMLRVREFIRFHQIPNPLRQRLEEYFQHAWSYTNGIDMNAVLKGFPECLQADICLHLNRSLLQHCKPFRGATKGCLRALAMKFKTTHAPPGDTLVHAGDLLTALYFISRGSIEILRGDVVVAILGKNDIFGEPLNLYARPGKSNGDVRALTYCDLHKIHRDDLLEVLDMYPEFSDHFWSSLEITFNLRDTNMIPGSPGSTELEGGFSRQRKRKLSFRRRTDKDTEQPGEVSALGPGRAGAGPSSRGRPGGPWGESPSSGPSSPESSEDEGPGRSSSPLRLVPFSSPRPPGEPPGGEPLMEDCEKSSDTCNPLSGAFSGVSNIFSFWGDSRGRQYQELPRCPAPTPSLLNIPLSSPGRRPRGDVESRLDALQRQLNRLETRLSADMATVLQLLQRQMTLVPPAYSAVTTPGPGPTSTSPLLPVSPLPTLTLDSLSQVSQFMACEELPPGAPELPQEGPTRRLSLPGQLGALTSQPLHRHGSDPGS

The assay concerns the target human ether-à-go-go-related gene (hERG) potassium channel (human, UniProt Q12809). Kind of assay: primary screen, population patch clamp on CHO cells stably expressing hERG.
Turning to `Cc1ccc(C(=O)N(C)c2ccc(OCC(=O)N3c4ccc(C)cc4C4CN(C)CCC43)cc2)cc1.Cl` (centres unmarked), the “hERG current change (%, negative = inhibition) at 10uM” value is listed as -25.5%.

As to `COc1ccc2cc(C(=O)NCc3ccccc3)c(=O)oc2c1`, the “hERG current change (%, negative = inhibition) at 10uM” value was 17.8%.

In the case of `COC(=O)c1ccc(OC)c(-c2c(OC)cc(OC)cc2OC)c1`, the “hERG current change (%, negative = inhibition) at 10uM” value is on record as -1.49%.

Turning to `CC1(C)C2CCC1(CS(=O)(=O)N1CCC(C(=O)O)CC1)C(=O)C2` (centres unmarked), the “hERG current change (%, negative = inhibition) at 10uM” value was found to be 2.6%.

Regarding `O=C(CN1CCN(S(=O)(=O)N2CCCCC2)CC1)Nc1ccc(Br)cc1`, the “hERG current change (%, negative = inhibition) at 10uM” value is recorded as -78.2%.

With `CCOC(=O)/C=C1\SCC(=O)N1CC(=O)NCc1ccc(OC)c(OC)c1`, the “hERG current change (%, negative = inhibition) at 10uM” value is on record as -3.73%.

On to `Cc1ccc(C)c(NC(=O)CN(C)C(=O)CCN2C(=O)c3ccccc3C2=O)c1`, for which the “hERG current change (%, negative = inhibition) at 10uM” value amounted to 0.75%.

As for `Cc1ccc(C)c(N2N=C(C(=O)O)CCC2=O)c1`, the “hERG current change (%, negative = inhibition) at 10uM” value turned out to be 5.29%.

Consider `CCc1cc2c(N3CCCCC3)ncnc2s1.Cl`, for which the “hERG current change (%, negative = inhibition) at 10uM” value was -7.21%.

As to `COCCNC(=O)COc1ncnc2ccc(Br)cc12`, the “hERG current change (%, negative = inhibition) at 10uM” value is on record as -1.11%.

For `CCN1C(=O)N[C@H](c2ccc(Br)cc2)C(C(=O)OC)=C1C`, the “hERG current change (%, negative = inhibition) at 10uM” value is on record as 2.79%.

As for `O=C(NNC(=O)C12CC3CC(CC(O)(C3)C1)C2)c1csc(N2CCOCC2)n1`, the “hERG current change (%, negative = inhibition) at 10uM” value is 21.9%.

Consider `O=C(c1ccc2ccccc2c1)C1CCCN(C(=O)CCn2cnnn2)C1` (centres unmarked), for which the “hERG current change (%, negative = inhibition) at 10uM” value was -15.5%.

As for `COc1ccc(OCC2CCCN(Cc3nc(CC4CC4)no3)C2)cc1` (centres unmarked), the “hERG current change (%, negative = inhibition) at 10uM” value was -46.3%.

For the compound `Cc1c(C(=O)N2CCC(Cc3ccccc3)CC2)cccc1[N+](=O)[O-]`, the “hERG current change (%, negative = inhibition) at 10uM” value is reported as -34.3%.

Turning to `CCOC(=O)c1ccc(N=c2sc(C(=O)OC)cc(=O)n2Cc2ccc3c(c2)OCO3)cc1`, the “hERG current change (%, negative = inhibition) at 10uM” value was found to be 8.99%.

Take `CC1CCN(c2oc(-c3ccccc3F)nc2C#N)CC1`: the “hERG current change (%, negative = inhibition) at 10uM” value is listed as -10.7%.

For `C=CCn1c(CCNC(=O)c2cccs2)nnc1SCC(=O)Nc1cccc(F)c1`, the “hERG current change (%, negative = inhibition) at 10uM” value is listed as -34.6%.

As to `Cc1ccc(NS(=O)(=O)c2c(C)nc3sccn3c2=O)cc1`, the “hERG current change (%, negative = inhibition) at 10uM” value is on record as -6.98%.

In the case of `O=C(N/N=C/c1ccc(Cl)c([N+](=O)[O-])c1)c1cc(-c2ccc3c4c(cccc24)CC3)n[nH]1`, the “hERG current change (%, negative = inhibition) at 10uM” value came to 8.06%.

`O=C(O)C1CCCCC1C(=O)NCCc1c[nH]c2ccccc12` (centres unmarked): the “hERG current change (%, negative = inhibition) at 10uM” value is recorded as 8.71%.

In the case of `COC(=O)c1ccc(N2CCOCC2)c(NC(=O)c2ccc3c(c2)OCCO3)c1`, the “hERG current change (%, negative = inhibition) at 10uM” value worked out at 9.21%.

`C=CCn1nnc2sc3c(c2c1=O)CCC(C)C3` (centres unmarked): the “hERG current change (%, negative = inhibition) at 10uM” value is 7.5%.

`Cc1c(NS(=O)(=O)c2cccc(C(=O)NCc3ccccc3)c2)c(=O)n(-c2ccccc2)n1C`: the “hERG current change (%, negative = inhibition) at 10uM” value turned out to be 4.59%.

As for `CCOC(=O)/C(C#N)=C/c1c(N2CCN(C)CC2)nc2ccccn2c1=O`, the “hERG current change (%, negative = inhibition) at 10uM” value was 9.23%.

Regarding `COc1ccc(NC(=O)C(=O)NNC(=O)c2cccs2)c(OC)c1`, the “hERG current change (%, negative = inhibition) at 10uM” value is -6.86%.

For the compound `CC(C)CNC(=O)CSc1nc2scc(-c3ccccc3)c2c(=O)[nH]1`, the “hERG current change (%, negative = inhibition) at 10uM” value was 1.58%.

Take `O=C(OCCN1C(=O)c2ccccc2C1=O)C1CC(O)CN1S(=O)(=O)c1ccc(Cl)cc1` (centres unmarked): the “hERG current change (%, negative = inhibition) at 10uM” value is recorded as -15.1%.

Regarding `CCOC(=O)C1=C(CSc2nc3ccccc3s2)NC(=O)NC1c1ccc(OC)cc1` (centres unmarked), the “hERG current change (%, negative = inhibition) at 10uM” value came out at 2.5%.

Regarding `CS(=O)(=O)c1ccc(Cl)c(NC(=O)C2CC(=O)N(Cc3ccccc3)C2)c1` (centres unmarked), the “hERG current change (%, negative = inhibition) at 10uM” value is -7.81%.

As for `Cc1nc(Nc2ccc(Cl)cc2Cl)sc1C(=O)Nc1ccccc1`, the “hERG current change (%, negative = inhibition) at 10uM” value turned out to be 12.6%.

`CCn1c(Cc2ccccc2)nnc1SCC(=O)NC1CC1`: the “hERG current change (%, negative = inhibition) at 10uM” value is recorded as 19.3%.

`O=C(Cn1cc2c(n1)CCCC2)N1CCc2ccccc21`: the “hERG current change (%, negative = inhibition) at 10uM” value was -2.05%.

With `COc1cccc(/C=N/n2cnc3c(cnn3-c3ccccc3)c2=O)c1`, the “hERG current change (%, negative = inhibition) at 10uM” value worked out at 9.03%.

As for `O=C1CCCN1c1ccc(S(=O)(=O)N2CCN(c3ccccn3)CC2)cc1`, the “hERG current change (%, negative = inhibition) at 10uM” value worked out at 10.8%.

For `Cc1ccc(-c2nn(-c3ccccc3)cc2CN(Cc2ccccc2)C(=O)c2ccco2)o1`, the “hERG current change (%, negative = inhibition) at 10uM” value is -7.34%.

Regarding `CCOC(=O)C(=O)NNc1ccccc1C`, the “hERG current change (%, negative = inhibition) at 10uM” value is -1.96%.

Regarding `COc1ccccc1CN1CCN(C(c2ccccc2)c2ccccc2)CC1.O=C(O)C(=O)O`, the “hERG current change (%, negative = inhibition) at 10uM” value was -55.1%.

Take `C=CCN1C(=O)C(O)(CC(=O)c2ccc(Cl)cc2)c2ccccc21` (centres unmarked): the “hERG current change (%, negative = inhibition) at 10uM” value worked out at 9.77%.

`CCOC(=O)c1ccc(NC(=O)N2CCOCC2)cc1`: the “hERG current change (%, negative = inhibition) at 10uM” value worked out at 22.3%.

For `Cc1cc(/C=N/N2CCN(C)CC2)c(C)n1-c1ccccc1F`, the “hERG current change (%, negative = inhibition) at 10uM” value was 2.54%.

Turning to `COc1ccccc1NC(=S)N1CCN(C(=O)c2ccco2)CC1`, the “hERG current change (%, negative = inhibition) at 10uM” value is on record as 12.8%.

For `CCN(CC)C(=O)c1ccc(-c2nnc(Nc3ccc(O)cc3)c3ccccc23)cc1`, the “hERG current change (%, negative = inhibition) at 10uM” value is 18.1%.

On to `C[C@H](NC(=O)C1CC(=O)N(c2ccc3c(c2)OCCO3)C1)C(=O)NCc1ccco1` (some centres unmarked), for which the “hERG current change (%, negative = inhibition) at 10uM” value is given as 22.6%.
